Reference: PubChem BioAssay AID1476 (National Center for Advancing Translational Sciences (NCATS), 2009)
Out of some 200,000 compounds screened, about 4,500 (2.2%) were called active. Inconclusive results, whose numbers are uncertain, are shown with a selection of clear calls. Calls come from the whole dose curve; as a rule, active = well fitted inhibition curve with a large enough effect; inconclusive = small, poorly fitted or top-dose-only effect, or effect the other way; inactive = flat fitted curve, though single readings scatter. Potencies of inconclusive entries are doubtful fits and often do not repeat.

molecular target: Cruzipain (Trypanosoma cruzi) (UniProt P25779); assay: qHTS Assay for Promiscuous and Specific Inhibitors of Cruzain (without detergent); conditions: purified cruzain, Z-FR-AMC fluorescence, no detergent; note: nearly all actives have a fitted effect of over 40% in size;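 for max response, negative = inhibition: plate controls were enzyme without inhibitor for no effect and buffer without enzyme for full effect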
How it was run: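 Purified cruzain at 1.5 nM, pre-incubated 15 min with compound at room temperature in 100 mM sodium acetate pH 5.5, 5 mM DTT, 0.00005% Triton X-100. Reaction started with 2 uM Z-FR-AMC; AMC fluorescence increase over 60 s gives rate.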
Potency is the fitted concentration of half-maximal effect; tags give direction and shape of the fitted curve.

UniProt P25779, sequence (P25779 whole entry, looked up): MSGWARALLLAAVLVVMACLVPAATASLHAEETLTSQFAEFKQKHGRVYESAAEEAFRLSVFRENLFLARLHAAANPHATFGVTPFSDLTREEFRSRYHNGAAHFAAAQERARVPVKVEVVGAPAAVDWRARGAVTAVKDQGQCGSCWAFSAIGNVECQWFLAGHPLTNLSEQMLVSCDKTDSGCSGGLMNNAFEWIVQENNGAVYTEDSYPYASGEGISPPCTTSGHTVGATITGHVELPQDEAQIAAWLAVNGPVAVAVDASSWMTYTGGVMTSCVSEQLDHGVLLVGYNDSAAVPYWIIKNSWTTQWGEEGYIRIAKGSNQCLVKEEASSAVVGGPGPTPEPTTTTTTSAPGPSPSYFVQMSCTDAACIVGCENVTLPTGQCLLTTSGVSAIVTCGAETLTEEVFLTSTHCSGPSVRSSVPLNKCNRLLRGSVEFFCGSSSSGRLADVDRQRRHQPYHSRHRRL

Structure (SMILES) | Potency | max response, negative = inhibition
CC(C)COc1cccc(C(=O)Nc2ccc(S(=O)(=O)N3CCOCC3)cc2)c1 | inconclusive: 39.8 µM [activator, single point] | 
O=C(NC(=S)Nc1ccc(NC(=O)c2cccs2)cc1)c1cc2ccccc2o1 | inconclusive: 31.6 µM [inhibitor, single point] | 
COc1ccc(Cl)cc1NC(=O)N1CCN(S(=O)(=O)c2ccc3c(ccn3C)c2)CC1 | inconclusive: 39.8 µM [inhibitor, single point] | 
O=C(c1ccc(F)cc1)N1CCc2c([nH]c3ccccc23)C1c1ccc(Cl)cc1 (stereo not given) | inconclusive: 39.8 µM [inhibitor, single point] | 
COc1ccc(N2CCN(S(=O)(=O)c3ccc(F)c(C(=O)Nc4ccccc4Cl)c3)CC2)cc1 |  | inactive: 10.6%
CSc1nnc(-c2ccco2)c(-c2ccco2)n1 | active: 12.6 µM | 
COc1cc(/C=N/NC(=O)c2cccnc2)ccc1OS(=O)(=O)c1ccc(C)cc1 | inconclusive: 39.8 µM [activator, single point] | 
COc1ccc(CC(=O)N2CCc3cc(OC)c(OC)cc3C2COc2ccc(F)cc2)cc1 (stereo not given) | inconclusive: 39.8 µM [activator, single point] | 
CN(C)Cc1ccccc1-c1cncnc1Nc1ccc(F)cc1 |  | inactive: 12%
COC(=O)c1cn[nH]c1NC(=S)Nc1ccc(Cl)c(Cl)c1 | inconclusive: 31.6 µM [inhibitor, single point] | 
O=C(CCN1c2ccccc2Sc2ccccc21)OCC(=O)N1CCN(C(=O)c2ccco2)CC1 | inconclusive: 25.1 µM [activator, partial curve] | 
CC(C)CC(COCc1ccc(F)cc1)N1CCN(C(=O)c2cccc(C(F)(F)F)c2)CCC1=O (stereo not given) | inconclusive: 31.6 µM [activator, single point] | 
O=C(/C=C/Nc1cccc(C(F)(F)F)c1)c1ccc(Oc2ncccn2)cc1 | inconclusive: 39.8 µM [activator, single point] | 
Cc1cc(NC(=O)CSc2nnc3c4c(C)c(C)sc4ncn23)no1 | inconclusive: 39.8 µM [activator, single point] | 
CCCn1c2ccc(F)cc2c2nnc(SCCN3CCCCC3)nc21 | active: 2 µM | 
O=C1CCCC2=C1C(c1cn(-c3ccccc3)nc1-c1cccs1)c1c([nH]c(=O)[nH]c1=O)N2 (stereo not given) | active: 12.6 µM | 
Cc1noc(NS(=O)(=O)c2ccc(NC(=O)CC34CC5CC(CC(Br)(C5)C3)C4)cc2)c1C | inconclusive: 39.8 µM [activator, single point] | 
COc1ccc(NS(=O)(=O)c2ccc(N3CCCCS3(=O)=O)cc2)cc1Cl |  | inactive: -1.28%
CCN(C(=O)c1ccc2c(Cl)c3c(nc2c1)CCC3)c1ccc(C)c(C)c1 | inconclusive: 39.8 µM [activator, single point] | 
Clc1ccc(-c2ccnc(Oc3ccc4ccccc4c3)n2)cc1 | inconclusive: 39.8 µM [inhibitor, single point] | 
O=C(Nc1ccc(Oc2ccccc2)cc1)C1CCN(c2c3c(nc4ncnn24)CCC3)CC1 | inconclusive: 39.8 µM [activator, single point] | 
CCOC(=O)C1CCCCN1C(=O)CCc1c(C)nc2cc(-c3ccccc3)nn2c1C (stereo not given) | inconclusive: 31.6 µM [activator, single point] | 

Structure (SMILES) | Potency | max response, negative = inhibition
Cc1ccc2oc(=O)c3cc(C(=O)NCCCOC(C)C)sc3c2c1 |  | inactive: -1.28%
Cc1onc(-c2ccccc2Cl)c1C(=O)OCC(=O)c1ccc2c(c1)OCCO2 | active: 25.1 µM | 
CCCCC/C=C\C/C=C\C/C=C\CCCCCCC(=O)O[C@H](COCCCCCCCCCCCCCCCC)COP(=O)([O-])OCC[N+](C)(C)C |  | inactive: 21.1%
CCOC(=O)c1c(C#N)c(SCC(=O)Nc2ccc(OC)cc2)nc2c1CN(CC)CC2 | active: 25.1 µM | 
COc1ccccc1CNC(=O)C(=O)NCC(c1cccs1)S(=O)(=O)c1ccccc1 (stereo not given) |  | inactive: 0.543%
COc1ccccc1-c1cc(-c2ccccc2)nc(SC(C(N)=O)c2ccccc2)c1C#N (stereo not given) | active: 7.94 µM | 
COc1cccc(/C=C/C(=O)c2c(O)cc(C)oc2=O)c1O |  | inactive: -1.47%
Cc1ccc(-c2cc(C(F)F)n3ncc(C(=O)Nc4ccc(S(=O)(=O)Nc5ccccc5C)cc4)c3n2)cc1 | inconclusive: 3.98 µM [inhibitor, partial curve] | 
COc1ccc(-c2nc3c(c(SCC(=O)N4CCCCC4)n2)Cc2cc(C)ccc2O3)cc1 |  | inactive: 5.04%
CCOc1ccc(OCC)c(NC(=O)c2cc(S(=O)(=O)N3CCc4ccccc43)cn2C)c1 |  | inactive: -11.8%
c1cncc(CNc2cc(-c3ccc4c(c3)OCO4)ncn2)c1 |  | inactive: -17.2%
CCOc1ccc2ncc3c(-c4ccc(C)cc4)nn(-c4cccc(F)c4)c3c2c1 |  | inactive: -3.88%
O=C(Cn1cc(C(=O)c2cccs2)c2ccccc21)NCc1ccc2c(c1)OCO2 | inconclusive: 39.8 µM [inhibitor, single point] | 
CCCOc1ccc(C2c3c(-c4ccccc4O)n[nH]c3C(=O)N2CCc2ccccc2)cc1OCC (stereo not given) | active: 12.6 µM | 
COc1cccc(NC(=O)c2cccc3c(=O)c4c([nH]c23)CCCC4)c1 |  | inactive: 17.1%
Cc1ccc(OCc2nnc(NC(=O)Cc3cccs3)s2)cc1 | inconclusive: 31.6 µM [inhibitor, single point] | 
CCCCCCCC/C=C\CCCCCCCC(=O)N(CCO)CCO | inconclusive: 15.8 µM [activator, full curve] | 
Cc1ccc(S(=O)(=O)CC(=O)Nc2nc3c(C)cc(C)cc3s2)cc1 | active: 12.6 µM | 
Cc1ccc(S(=O)(=O)N2CCN(S(=O)(=O)N3CCCCC3)CC2)cc1 | inconclusive: 25.1 µM [inhibitor, partial curve, poor fit] | 
CCOc1cccc(C(=O)Nc2ccc(-c3nc4ncccc4o3)cc2C)c1 | inconclusive: 39.8 µM [activator, single point] | 
Cc1ccc(NC(=O)c2cc(S(=O)(=O)N3CCC4(CC3)OCCO4)ccc2F)cc1Cl | inconclusive: 39.8 µM [activator, single point] | 
CCCCN(CCCNC(=O)c1cc(Nc2cccc(SC)c2)nc2ccccc12)Cc1ccccc1 | inconclusive: 3.16 µM [activator, partial curve, poor fit] | 

Structure (SMILES) | Potency | max response, negative = inhibition
CN(C)c1cccc(C(=O)OCC(=O)Nc2ccccc2Sc2ccccc2)c1 | inconclusive: 39.8 µM [inhibitor, single point] | 
Cc1ccc(-n2c(/C=C/c3c(C)n(C)c4ccccc34)nc3ccccc3c2=O)cc1 |  | inactive: -1.75%
O=c1[nH]c(=O)n(CCc2ccc(F)cc2)c(O)c1C=NCc1ccc2c(c1)OCO2 | inconclusive: 39.8 µM [inhibitor, single point] | 
Cc1ccc2c(c1)N(C(=O)CSc1nncn1C)C(C)(C)c1ssc(=S)c1-2 | inconclusive: 31.6 µM [activator, single point] | 
CC(=O)NCCNC(=O)CCCn1c(=O)[nH]c2ccsc2c1=O |  | inactive: -4.52%
COc1ccc(CCNC(=O)CN2CCN(S(=O)(=O)c3ccc(Cl)cc3)CC2)cc1OC | inconclusive: 39.8 µM [activator, single point] | 
O=c1cc(CN2CCN(c3ccccc3F)CC2)c2cc3c(cc2o1)CCCC3 | inconclusive: 39.8 µM [inhibitor, single point] | 
CS(=O)(=O)N1CCN(c2ccccc2NC(=O)C(c2ccccc2)c2ccccc2)CC1 | inconclusive: 25.1 µM [inhibitor, single point] | 
COc1ccccc1[C@@H]1C(c2cccc(C)c2)=NN(c2ccc(Br)cc2)[C@H]1C(=O)N1CCOC1=O | active: 10 µM | 
O=C(NCc1ccccc1)C1CCN(S(=O)(=O)Cc2ccccc2)CC1 |  | inactive: -13.1%
Cc1ccc(-n2c(SCc3ccccc3F)nc3[nH]ncc3c2=O)cc1Cl | inconclusive: 39.8 µM [inhibitor, single point] | 
O=C(CSc1nnnn1-c1ccccc1)CC(=O)Nc1ccc(Cl)cc1 | inconclusive: 31.6 µM [inhibitor, single point] | 
CCOC(=O)c1c(NC(=O)C(C)N2CCN(S(=O)(=O)c3cccs3)CC2)sc2c1CCC(C)C2 (stereo not given) | active: 7.94 µM | 
Cc1ccc(CNC(=O)c2ccc3nc4[nH]c5ccccc5c4nc3c2)cc1 | active: 25.1 µM | 
N#Cc1c(-c2ccccc2)cc(-c2ccccc2)nc1SCC(O)CS(=O)(=O)Cc1ccccc1 (stereo not given) | active: 20 µM | 
O=C(Cn1cc(SCc2ccc(F)cc2)c2ccccc21)N1CCCCCC1 |  | inactive: -1.72%
Cc1c(Cl)c([N+](=O)[O-])nn1CCCC(=O)Nc1sc2c(c1C(N)=O)CCC(C)C2 (stereo not given) | inconclusive: 31.6 µM [activator, single point] | 
O=C(c1cnccn1)N1CCC[C@@]2(CCN(c3cccc(-c4ccccc4)c3)C2)C1 | inconclusive: 39.8 µM [activator, single point] | 
O=C(CN1CCN(S(=O)(=O)c2ccc(F)cc2)CC1)Nc1cccc(C(F)(F)F)c1 | inconclusive: 20 µM [activator, partial curve] | 
Cc1ccccc1Cn1nnc2c(=O)[nH]c(C3CCCN(C(=O)c4ccc(C(C)(C)C)cc4)C3)nc21 (stereo not given) | inconclusive: 39.8 µM [activator, single point] | 
O=C(c1ccc2c(c1)N(Cc1cccc(Cl)c1)C(=O)c1ccccc1S2(=O)=O)N1CCCC1 | inconclusive: 39.8 µM [activator, single point] | 
